# Assay results as given in paper PMC12820563, “FoxP3 forms a head-to-head dimer in vivo and stabilizes its multimerization on adjacent microsatellites”.
# The list shows a part of the results.
# Molecular target: T1, MBP-FoxP1dN (Mus musculus, UniProt P58462 326-579)
# T1 sequence: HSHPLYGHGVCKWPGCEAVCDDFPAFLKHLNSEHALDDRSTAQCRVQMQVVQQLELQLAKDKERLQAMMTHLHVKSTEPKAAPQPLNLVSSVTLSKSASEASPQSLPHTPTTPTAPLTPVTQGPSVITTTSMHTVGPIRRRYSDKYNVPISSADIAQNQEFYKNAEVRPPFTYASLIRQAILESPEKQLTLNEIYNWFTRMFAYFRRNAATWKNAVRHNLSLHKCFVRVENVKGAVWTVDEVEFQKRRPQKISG
# Assay: PD-seq (MBP pull-down with sequencing); 20 mM Tris-HCl pH 7.5, 100 mM NaCl, 1.5 mM MgCl2, 0.4 uM protein, 0.1 uM dsDNA library, 30 min, room temperature, amylose pull-down; high values mean tight binding
# Settings: protein: recombinant; tags: His6-MBP; chain copies: 2; dsDNA, one strand shown
# Outline: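 Binding is given as reads-per-million enrichment, pull-down over input, with replicates pooled. The bait was an N-terminus-lacking mouse FoxP3 or FoxP1 fragment with a His6-MBP tag, expressed in E. coli and used at 0.4 µM with 0.1 µM Klenow-filled degenerate double-stranded DNA library for 30 min at room temperature in Tris pH 7.5 buffer with NaCl and MgCl2. Amylose resin pull-down with three washes was followed by proteinase K release, PCR barcoding and Illumina sequencing.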
row,Sequence,binding signal
1,GATGATTGTTCTCCCAGCTGATGAATTAGATTATTCGAGTAAACAAATTTTCCTAATCTTTCTGTTCAAGCGCCATCTAC,0.962 RPM ratio (pull-down/input)
2,GATGATTGTTCTCCCAGCTGATGAATTCTACATTTCGAGTAAACAAATTTTCCTAATCTTTCTGTTCAAGCGCCATCTAC,0.931 RPM ratio (pull-down/input)
3,GATGATTGTTCTCCCAGCTGATGAATTTGCTCTGTCGAGTAAACAAATTTTCCTAATCTTTCTGTTCAAGCGCCATCTAC,0.957 RPM ratio (pull-down/input)
4,GATGATTGTTCTCCCAGCTGATGAATTAGGTCGTTCGAGTAAACAAATTTTCCTAATCTTTCTGTTCAAGCGCCATCTAC,0.944 RPM ratio (pull-down/input)
5,GATGATTGTTCTCCCAGCTGATGAATTCGCGTCCTCGAGTAAACAAATTTTCCTAATCTTTCTGTTCAAGCGCCATCTAC,0.919 RPM ratio (pull-down/input)
6,GATGATTGTTCTCCCAGCTGATGAATTGACGCGATCGAGTAAACAAATTTTCCTAATCTTTCTGTTCAAGCGCCATCTAC,1.13 RPM ratio (pull-down/input)
7,GATGATTGTTCTCCCAGCTGATGAATTCTTGGCCTCGAGTAAACAAATTTTCCTAATCTTTCTGTTCAAGCGCCATCTAC,0.832 RPM ratio (pull-down/input)
8,GATGATTGTTCTCCCAGCTGATGAATTGCATGCCTCGAGTAAACAAATTTTCCTAATCTTTCTGTTCAAGCGCCATCTAC,1.17 RPM ratio (pull-down/input)
9,GATGATTGTTCTCCCAGCTGATGAATTAGTCGTTTCGAGTAAACAAATTTTCCTAATCTTTCTGTTCAAGCGCCATCTAC,0.963 RPM ratio (pull-down/input)
10,GATGATTGTTCTCCCAGCTGATGAATTGCCAAATTCGAGTAAACAAATTTTCCTAATCTTTCTGTTCAAGCGCCATCTAC,1.1 RPM ratio (pull-down/input)
11,GATGATTGTTCTCCCAGCTGATGAATTGCGGTCTTCGAGTAAACAAATTTTCCTAATCTTTCTGTTCAAGCGCCATCTAC,0.952 RPM ratio (pull-down/input)
12,GATGATTGTTCTCCCAGCTGATGAATTCGTGGTATCGAGTAAACAAATTTTCCTAATCTTTCTGTTCAAGCGCCATCTAC,0.965 RPM ratio (pull-down/input)
13,GATGATTGTTCTCCCAGCTGATGAATTCGAACTCTCGAGTAAACAAATTTTCCTAATCTTTCTGTTCAAGCGCCATCTAC,0.769 RPM ratio (pull-down/input)
14,GATGATTGTTCTCCCAGCTGATGAATTTGATCGGTCGAGTAAACAAATTTTCCTAATCTTTCTGTTCAAGCGCCATCTAC,0.807 RPM ratio (pull-down/input)
15,GATGATTGTTCTCCCAGCTGATGAATTAAATGTGTCGAGTAAACAAATTTTCCTAATCTTTCTGTTCAAGCGCCATCTAC,1.02 RPM ratio (pull-down/input)
16,GATGATTGTTCTCCCAGCTGATGAATTGGGGGCATCGAGTAAACAAATTTTCCTAATCTTTCTGTTCAAGCGCCATCTAC,1.01 RPM ratio (pull-down/input)

row,Sequence,binding signal
1,GATGATTGTTCTCCCAGCTGATGAATTTCGATGGTCGAGTAAACAAATTTTCCTAATCTTTCTGTTCAAGCGCCATCTAC,0.888 RPM ratio (pull-down/input)
2,GATGATTGTTCTCCCAGCTGATGAATTCACCGTTTCGAGTAAACAAATTTTCCTAATCTTTCTGTTCAAGCGCCATCTAC,0.982 RPM ratio (pull-down/input)
3,GATGATTGTTCTCCCAGCTGATGAATTACGGGGATCGAGTAAACAAATTTTCCTAATCTTTCTGTTCAAGCGCCATCTAC,0.883 RPM ratio (pull-down/input)
4,GATGATTGTTCTCCCAGCTGATGAATTCACCAATTCGAGTAAACAAATTTTCCTAATCTTTCTGTTCAAGCGCCATCTAC,1.02 RPM ratio (pull-down/input)
5,GATGATTGTTCTCCCAGCTGATGAATTGACTATTTCGAGTAAACAAATTTTCCTAATCTTTCTGTTCAAGCGCCATCTAC,1.19 RPM ratio (pull-down/input)
6,GATGATTGTTCTCCCAGCTGATGAATTATGGTGATCGAGTAAACAAATTTTCCTAATCTTTCTGTTCAAGCGCCATCTAC,1.03 RPM ratio (pull-down/input)
7,GATGATTGTTCTCCCAGCTGATGAATTGAATTCCTCGAGTAAACAAATTTTCCTAATCTTTCTGTTCAAGCGCCATCTAC,0.804 RPM ratio (pull-down/input)
8,GATGATTGTTCTCCCAGCTGATGAATTATGTGAATCGAGTAAACAAATTTTCCTAATCTTTCTGTTCAAGCGCCATCTAC,1.14 RPM ratio (pull-down/input)
9,GATGATTGTTCTCCCAGCTGATGAATTCGTTACGTCGAGTAAACAAATTTTCCTAATCTTTCTGTTCAAGCGCCATCTAC,1.03 RPM ratio (pull-down/input)
10,GATGATTGTTCTCCCAGCTGATGAATTGGGCGTGTCGAGTAAACAAATTTTCCTAATCTTTCTGTTCAAGCGCCATCTAC,0.85 RPM ratio (pull-down/input)
11,GATGATTGTTCTCCCAGCTGATGAATTCCCCTCTTCGAGTAAACAAATTTTCCTAATCTTTCTGTTCAAGCGCCATCTAC,0.821 RPM ratio (pull-down/input)
12,GATGATTGTTCTCCCAGCTGATGAATTCATAGCTTCGAGTAAACAAATTTTCCTAATCTTTCTGTTCAAGCGCCATCTAC,0.837 RPM ratio (pull-down/input)
13,GATGATTGTTCTCCCAGCTGATGAATTCAATTGCTCGAGTAAACAAATTTTCCTAATCTTTCTGTTCAAGCGCCATCTAC,0.952 RPM ratio (pull-down/input)
14,GATGATTGTTCTCCCAGCTGATGAATTCCAAGACTCGAGTAAACAAATTTTCCTAATCTTTCTGTTCAAGCGCCATCTAC,0.757 RPM ratio (pull-down/input)
15,GATGATTGTTCTCCCAGCTGATGAATTCGTAACATCGAGTAAACAAATTTTCCTAATCTTTCTGTTCAAGCGCCATCTAC,1.13 RPM ratio (pull-down/input)
16,GATGATTGTTCTCCCAGCTGATGAATTTCGGTCTTCGAGTAAACAAATTTTCCTAATCTTTCTGTTCAAGCGCCATCTAC,0.868 RPM ratio (pull-down/input)
